Laboratory results as given in the supplement of paper PMC12217912.
Some of the results follow. The full chains were built here from the parent and the listed change. Values near 0.05 are background.

B1: TEV protease; numbered along this chain (parent)
chain: MGESLFKGPRDYNPISSSICHLTNESDGHTTSLYGIGFGPFIITNKHLFRRNNGTLVVQSLHGVFKVKDTTTLQQHLVDGRDMIIIRMPKDFPPFPQKLKFREPQREERICLVTTNFQTKSMSSMVSDTSCTFPSGDGIFWKHWIQTKDGQCGSPLVSTRDGFIVGIHSASNFTNTNNYFTSVPKNFMELLTNQEAQQWVSGWRLNADSVLWGGHKVFMVKPEEPFQPVKEATQL

Variants of: B1
Experiment: raw area under fraction-flipped curve 0-4 h after induction (AUC4h, not background-subtracted), DNA-recorder readout of cleavage of the substrate (dimensionless); higher = more cleavage of the substrate by the protease variant
Conditions: temperature: 34 °C; time window: 0-4 h after rhamnose induction
Method: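 In vivo DNA recorder in E. coli TOP10(DE3) ΔrhaA at 34 °C. Each TEVp single-site mutant (parent TEVp 0) is paired with a single-site variant of the 7-mer TEVs (canonical ENLYFQ|S). The substrate sits between flexible linkers in a Bxb1-sfGFP-TEVs-SsrA fusion, so cleavage stabilises Bxb1 and speeds flipping of a recombination array, read by NGS. The value is the raw area under the fraction-flipped curve over 0-4 h after rhamnose induction (AUC4h), with ≥20 reads per time point. It is not background-subtracted; inactive controls average about 0.047.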
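Further: Bxb1 expression induced with 0.2% (w/v) L-rhamnose at OD600 near 0.5, cultures sampled hourly, flipped fraction per protease–substrate barcode pair counted by paired-end Illumina sequencing.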

Variant	area with substrate CNLYFQS	area with substrate GNLYFQS	area with substrate INLYFQS	area with substrate KNLYFQS	area with substrate LNLYFQS	area with substrate MNLYFQS	area with substrate SNLYFQS	area with substrate FNLYFQS	area with substrate HNLYFQS	area with substrate PNLYFQS	area with substrate RNLYFQS	area with substrate TNLYFQS	area with substrate QNLYFQS	area with substrate WNLYFQS	area with substrate VNLYFQS	area with substrate YNLYFQS	area with substrate NNLYFQS
Q197M	0.0738	0.0573	0.0638	0.0645	0.0773	0.0624	0.0661	–	–	–	–	–	–	–	–	–	–
R51P	0.083	0.0581	0.0741	–	0.0666	0.0608	–	0.0558	0.0638	0.0616	0.0565	0.0598	–	–	–	–	–
E108F	0.0828	–	–	–	–	–	0.0425	–	0.053	0.0617	–	0.0438	0.0546	0.0525	–	–	–
T159D	0.0473	–	–	–	–	–	–	–	0.0561	0.0738	–	0.0719	–	–	0.0642	0.0583	–
T71G	0.051	0.0405	0.0677	0.0795	–	–	0.0486	0.06	0.0532	0.0631	–	0.0561	–	0.0715	–	0.0554	–
T30I	0.0714	–	0.0492	0.0598	0.0733	–	–	0.0506	0.0691	0.0613	–	–	–	0.0611	–	–	–
W212L	0.077	–	–	0.0694	–	0.0677	0.0611	–	0.0719	0.0687	0.042	–	–	0.0498	–	0.0622	0.007
K148V	0.0672	0.0666	0.0659	0.0641	0.0674	–	–	–	0.0705	–	–	0.0672	–	0.0641	0.0057	–	0.0737
F92I	0.0692	0.0587	–	0.0704	0.0638	–	0.0592	–	0.0723	0.0535	–	0.0646	–	0.0676	–	0.0605	–
T174W	0.0655	–	–	–	0.071	0.0704	–	0.0809	0.0591	0.0348	–	0.0661	–	0.0493	0.0514	0.0607	0.0611
S171Q	0.0581	–	0.0604	–	0.0672	0.0548	0.0442	–	–	0.0712	–	–	–	–	0.0641	0.111	–
K142A	0.0655	0.0823	0.0661	0.0736	0.0693	–	–	0.073	0.0686	0.0982	–	0.0647	–	0.054	–	0.0811	–
S182Y	0.0502	–	0.0539	0.0539	–	–	–	0.0536	–	0.0594	–	0.0467	–	0.0529	–	–	0.0544
V217I	0.0768	0.0742	–	–	0.0523	–	0.0815	0.0461	0.0805	0.067	–	0.0694	0.0781	–	–	–	0.0581
V217F	0.101	0.0489	0.0406	–	0.082	–	0.0726	–	–	–	–	0.0577	–	0.0549	–	0.0575	–
F117Q	0.11	–	–	–	0.0528	–	0.0769	–	0.0722	0.0683	0.0347	0.0482	–	0.068	0.0721	–	0.091
F117S	0.0698	–	–	0.0479	–	0.0716	–	–	0.0584	0.0666	–	0.0611	–	0.0662	0.065	0.0396	0.0645
F140Q	0.0596	–	0.0403	–	–	–	–	–	0.0275	–	0.0343	–	–	–	–	–	–
S127Q	0.0584	–	0.0749	0.0657	0.0598	0.066	0.0582	0.0515	0.0831	0.0787	–	0.0726	–	0.0477	0.0611	–	–

Variant	area with substrate CNLYFQS	area with substrate GNLYFQS	area with substrate INLYFQS	area with substrate KNLYFQS	area with substrate LNLYFQS	area with substrate MNLYFQS	area with substrate SNLYFQS	area with substrate FNLYFQS	area with substrate HNLYFQS	area with substrate PNLYFQS	area with substrate RNLYFQS	area with substrate TNLYFQS	area with substrate QNLYFQS	area with substrate WNLYFQS	area with substrate VNLYFQS	area with substrate YNLYFQS	area with substrate NNLYFQS
F101R	0.0527	0.043	–	0.05	–	–	0.0532	–	–	0.0434	0.0523	0.0665	–	–	0.0541	0.0511	–
S135W	0.0537	0.0557	0.0526	–	0.0638	0.056	0.0651	–	0.0492	0.056	–	0.0648	–	0.0602	–	0.0517	–
I86L	0.0715	–	0.0621	–	–	0.0882	–	–	–	–	–	0.0658	–	0.0572	–	–	–
I86T	0.0063	0.064	0.0636	–	–	0.0696	0.0625	–	–	–	–	–	–	0.0457	–	–	0.0542
K68H	0.0708	–	0.0351	–	–	0.0749	0.0693	–	–	0.054	–	–	0.0543	0.0583	–	–	–
K68D	0.097	–	0.0802	0.0719	–	–	0.0622	–	0.0617	0.0842	–	–	–	0.0646	–	–	0.0573
M188A	0.0617	0.0768	0.0432	0.0615	–	–	–	0.0459	0.0556	0.0709	–	0.0631	–	0.0641	0.0953	0.0531	0.072
N52E	0.0601	–	0.0587	0.0659	–	0.0654	0.0571	–	0.0557	–	–	–	–	0.0575	–	–	0.0537
D91I	0.0716	0.0751	0.0609	–	–	0.0771	–	–	0.0754	–	–	0.054	–	0.0647	0.0236	–	0.0699
G138K	0.0657	0.0605	0.0758	0.0577	0.0792	0.063	0.0711	–	0.0468	0.0632	–	0.0859	0.032	0.0474	–	0.0532	0.067
F95C	0.0719	–	–	–	–	0.0582	–	–	0.0689	0.0844	–	–	–	0.0482	–	–	–
F218M	0.0706	0.0694	–	–	–	0.0572	–	–	–	–	–	0.0617	–	0.0665	–	–	–
R81W	0.0459	–	–	0.0539	0.0693	–	0.0672	0.0576	–	0.0702	0.0719	–	0.0809	0.0651	–	–	0.0765
E3T	0.119	–	–	–	0.0559	–	0.059	–	–	–	–	0.0713	–	–	–	–	–
P225N	0.0811	0.0626	0.066	0.0678	0.0614	–	0.0675	0.0554	–	0.0662	–	0.0452	–	0.0574	0.0666	0.0472	–
P225Q	0.0722	–	–	0.0639	0.0708	–	–	–	0.06	0.0892	–	0.0853	–	0.0571	–	0.0547	–
V229S	0.0675	0.0591	0.0726	0.053	0.0569	0.0688	0.0549	–	0.0763	0.064	–	–	–	0.0689	–	–	–
Q194Y	0.0683	0.0739	–	–	0.0603	–	–	–	0.0404	0.0606	–	0.0733	–	–	–	–	–
I42K	0.0328	–	–	0.0543	0.0434	0.0337	0.0449	–	0.048	0.0441	–	0.0514	–	0.0475	0.0565	0.0318	0.0559
